In PubChem BioAssay AID624296 (National Center for Advancing Translational Sciences (NCATS), 2012):
Screen size: about 350,000 compounds; about 9,900 (2.8%) were called active. Inconclusive results, whose numbers are uncertain, are shown with a selection of clear calls. Calls come from the whole dose curve; as a rule, active = well fitted activation curve with a large enough effect; inconclusive = small, poorly fitted or top-dose-only effect; inactive = no such curve, though single readings can be large or run the other way. Potencies of inconclusive entries are left out as doubtful fits.

assay: A quantitative high throughput screen for small molecules that induce DNA re-replication in MCF 10a normal breast cells.; note: nearly all actives have a fitted effect of over 50% in size; for activity, positive = re-replication: % of control where 0% means no effect; conditions: MCF 10A DNA re-replication, Hoechst nuclear intensity, 48 h; activity, positive = re-replication: at 46.1 µM (top of the series)
Potency is the fitted concentration of half-maximal effect; tags give direction and shape of the fitted curve.

Structure (SMILES)	Potency	activity, positive = re-replication
O=C(NC1CCCCC1)c1ccccc1C(F)(F)F	inconclusive [activator, partial curve, poor fit]	
CC(C)CNC(=S)N(Cc1ccco1)Cc1cc2cc3c(cc2[nH]c1=O)OCCO3	inconclusive [activator, partial curve, poor fit]	
Cc1ccccc1C(=O)Nc1nnc(CC(=O)N/N=C/c2cn(Cc3ccccc3)c3ccccc23)s1	active: 6.51 µM	
FC(F)(Cl)c1nnc2ccc(Cl)nn12	inconclusive [activator, single point]	
COc1cccc(-c2ocnc2C(=O)Nc2ccc3c(c2)CCC3)c1	inconclusive [activator, partial curve, poor fit]	
CC(C)n1c(SC2C(=O)CC(C)(C)CC2=O)nc2c1c(=O)n(C)c(=O)n2C	inconclusive [activator, full curve, poor fit]	
C[C@H]1COC(=O)[C@H](NC(=O)OCC2c3ccccc3-c3ccccc32)C/C=C\C[C@H](CC(=O)N(CCO)Cc2ccccc2)C(=O)N1	inconclusive [activator, single point]	
O=C(Nc1nc(-c2ccc3c(c2)OCO3)cs1)c1ccncc1	inconclusive [activator, single point]	
COC(=O)c1sc2nc(-c3ccccc3)nc(N3CCN(C)CC3)c2c1C	inconclusive [activator, single point]	
N#C/C(=N\O)c1nc2ccccc2s1		inactive: -4.23%
COc1ccc(-c2c(-c3ccccc3)n(C)c3ccccc23)cc1	inconclusive [activator, single point]	
O=C(Nn1c(SCc2ccccc2F)nc2ccsc2c1=O)c1ccccc1	inconclusive [activator, single point]	
CC1=NNC(=O)/C1=C\c1cn(-c2ccccc2)nc1-c1ccc(Cl)cc1	active: 3.66 µM	
Cc1ccc(/C=N/NC(=O)CN(Cc2ccccc2)S(=O)(=O)c2ccc3c(c2)OCCO3)cc1		inactive: 16.2%
Cc1cccn2c(=O)c3cc(C(=O)NCc4ccc(F)cc4)c(=N)n(CCCN4CCOCC4)c3nc12	inconclusive [activator, full curve, poor fit]	
O=c1oc2ccccc2c(N2CCCCC2)c1CN1CCCCC1	inconclusive [activator, partial curve]	
N=c1ccn(Cc2ccccc2Cl)cc1		inactive: 4%
N#C/C(=C\c1ccco1)Sc1nc2ccccc2s1	inconclusive [activator, partial curve, poor fit]	
CN(Cc1nc2ccccc2c(=O)[nH]1)Cc1nc2ccsc2c(=O)[nH]1		inactive: 1.11%
Cn1c(SCc2ccccc2)nnc1C1CCCNC1 (centres undefined)		inactive: -0.313%
COc1cccc2cc(C(=O)Nc3cccnc3N3CCOCC3)c(=O)oc12	inconclusive [activator, single point]	
Cc1cc(C)c(C(=O)/C=C/C=C/c2ccccc2)c(=O)[nH]1	inconclusive [activator, partial curve, poor fit]	

Structure (SMILES)	Potency	activity, positive = re-replication
COc1ccc(NC(=O)C(C)N2C(=O)C3CC=C(Cl)CC3C2=O)cc1 (centres undefined)		inactive: -2.23%
COC(=O)C1=C(C(=O)OC)SC(=C2C(=S)C(C)(C)N(C(=O)C(C)C)c3ccccc32)S1	inconclusive [activator, single point]	
CC(C)(C)c1cc(NC(=O)Nc2ccccc2OC(F)(F)F)no1	inconclusive [activator, single point]	
O=C(C1CCC1)N1CCc2cc(S(=O)(=O)NCCCN3CCCCC3)ccc21	inconclusive [activator, partial curve]	
CCOC(=O)C1=C(CC)Nc2ccccc2N=C1NC(=O)c1ccc(S(=O)(=O)N(C)C)cc1	inconclusive [activator, full curve, poor fit]	
C=CCc1ccc(O)c(-c2ccc(O)c(CC=C)c2)c1	inconclusive [activator, single point]	
O=c1nc(/C=C/c2ccccc2C(F)(F)F)cc(C(F)(F)F)[nH]1	inconclusive [activator, partial curve, poor fit]	
O=C1CSC(=S)N1c1cccnc1	inconclusive [activator, single point]	
CCN(CC)S(=O)(=O)c1ccc(C)c(NC(=O)/C=C/c2cccs2)c1		inactive: 11.9%
C=CCn1c(=O)c2c(nc3n2CC(C)CN3CCc2ccccc2)n(C)c1=O (centres undefined)	inconclusive [activator, partial curve, poor fit]	
O=C1c2ccccc2C(=O)N1c1nc2nccc(-c3ccccc3)n2n1	inconclusive [activator, partial curve, poor fit]	
Brc1ccc(-c2cnc3n2CCCC3)cc1	inconclusive [activator, partial curve, poor fit]	
CCOC(=O)c1nnn(-c2nonc2-n2cccc2)c1CN1CCC(C)CC1	active: 25.9 µM	
O=C(Nc1nc(-c2ccco2)cs1)c1ccccc1		inactive: 12.8%
C/C(=N\NC(N)=O)c1ccc(Cl)s1		inactive: 4.41%
CCN(CC(=O)NC1CCS(=O)(=O)C1)c1nc(-c2ccccc2)nc2ccccc12 (centres undefined)		inactive: 5.7%
Cc1ccc(NC(=O)CNC(=O)c2ccco2)nc1	inconclusive [activator, partial curve, poor fit]	
Cc1[nH]nc2c1C(c1ccco1)C(C#N)=C(N)O2 (centres undefined)		inactive: 2.03%
Cc1ccc(S(=O)(=O)C2(C(=O)Nc3nccs3)CC2)cc1		inactive: 1.39%
CC(C)(C)c1nnc(NC(=O)CCS(=O)(=O)c2ccccc2)s1	inconclusive [activator, single point]	
Cc1cnc(C(=O)OCc2nc3ccccc3o2)cn1	inconclusive [activator, full curve, poor fit]	
CC(=O)Oc1ccc2ccccc2c1C(NC(=O)Cc1ccccc1)c1ccccc1Cl (centres undefined)	inconclusive [activator, full curve]	
